This is one part of the list.
Test system: PfHDP1 homeodomain (GST-tagged)
Experiment: gcPBM binding intensity (ln(normalized median fluorescence intensity)); higher = stronger DNA binding
Method in brief: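 Binding intensity is the highest Masliner-normalised natural-log median intensity over replicate spots in either probe orientation. To obtain it, GST-tagged P. falciparum DNA-binding domains made in E. coli were incubated for 1 h on an Agilent 4 × 180k array of primer-extended double-stranded 36-bp intergenic genomic probes plus negative controls. Detection used Alexa488 anti-GST antibody with scanning at 488 nm.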

| Sequence | gcPBM binding intensity (ln) |
| --- | --- |
| TATTTAAAAAGAAAAAAAAAAAAAAAAATACATATA [CACACA_negctrl_site164] | 6.14 |
| AAAAAAAAAAAATATACACACTAATATATTTTTTTA [CACACA_site4604] | 6.58 |
| TATTAAATTTATCGGAGTACATTTAAATGTATATAC [XGTACX_site7975] | 6.76 |
| TATATACGCAAACACACACACACATACACCCACATA [CACACA_site1724] | 7.47 |
| AAAAAAAAAATTAAAACATGCATAAATAAATATATT [TGCATGCA_site866] | 6.47 |
| TCATTTCACAGACACACACACACAATATATTTCCTT [CACACA_site9295] | 7.36 |
| ATATTTTTATTAGTAGTGCAATTTAGTGTATATATA [GTGCAC_site9542] | 10.1 |
| TATGTGTAATATTTTTGTACAGAAAAAAAAAAAAAA [XGTACX_site7075] | 6.41 |
| AAAAAAAAAAAAAACACACACATGCACATCATATTA [CACACA_site4467] | 7.97 |
| AAATATTTTTTTTCTACACACATACAAATATAGATT [CACACA_site7164] | 6.75 |
| ATGCCCCATATAAACACACAAATAAAAAGAATATAC [CACACA_site7292] | 7.22 |
| TGTAGTCTGGAGAAACGTACACAGTATCTGGTAACA [XGTACX_site4938] | 6.07 |
| AAAGGGGATATATGAACACACAAAAAAAAAATATAT [CACACA_site2896] | 6.78 |
| TATTTATTACTATGTAAACACACATGCAATATATGT [CACACA_site8288] | 6.69 |
| ATATTTAAAGAATAAGTGCAAAATGTAATTAATTTT [GTGCAC_site9901] | 9.7 |
| TATATTTTATAAAAAAGTACACATGAAAATGTATTT [XGTACX_site5889] | 6.14 |
| AAATTTTATTATAGCAGTACAATATAATATTATTAA [XGTACX_site1971] | 6.33 |
| TTTTTTCCTTTTAATTGTACACAGATATAATATATT [XGTACX_site2230] | 6.77 |
| TGTTGATGATATTACACACCCAATGAGAAAAGGAAT [CACACA_site2072] | 7.07 |

| Sequence | gcPBM binding intensity (ln) |
| --- | --- |
| TTTTACAAAATAAAAATATAGAATACGGTAAATTAT [GTGCAC_negctrl_site40] | 6.74 |
| TAAAAATGTGGACACACACACATATTTATATTTAAT [CACACA_site6827] | 6.38 |
| TATCATTTTATTATTCTACACACTTATCTATAATTA [CACACA_site7894] | 6.56 |
| TTTTTTTTTTTTTTTGCATGTTGTTTAATGTATTGT [TGCATGCA_site772] | 6.47 |
| AAATAAGAGCGTAGCACACACGCATTTTATAAATGT [CACACA_site741] | 6.39 |
| AATATATTTTTCTACCGTACATAATAAAATATATAT [XGTACX_site1777] | 6.77 |
| GAACCACTAAAATGAGCATGCTCATATTTACATATA [TGCATGCA_site1033] | 9.44 |
| TATTTATTTATTTATTGTACATAAGTATATATTATA [XGTACX_site6566] | 6.52 |
| AAAAAAAAAAAAAGTACACACTTTTGCGTACATGTA [CACACA_site7449] | 6.49 |
| AAAAAGTAGTAAAACAGTACAGTATTTATGCCTATT [XGTACX_site6434] | 6.69 |
| TGGTATGTTTTACAAAGTACCCATCGATTCTTATGT [XGTACX_site2822] | 6.03 |
| ATTACATACACGCGCACACACAAAAAAAAAAAAAAA [CACACA_site1334] | 7.49 |
| GTACTCTTCTCCAGACTGCACTATACGACTCGTACA [GTGCAC_site9770] | 7.35 |
| ATATATATATATATATGTACTTATATATAATATAGA [XGTACX_site3488] | 9.28 |
| TATTATATATATAAATGTACTTATTTTAATTCCCCT [XGTACX_site8638] | 6.54 |
| TTTTGTTTATTATGATTCAAAATGATTTTATCTTTG [TGCATGCA_negctrl_site425] | 6.17 |
| AAAAAAACATGAAACACACACAAATATTTATTTATA [CACACA_site6967] | 6.68 |
| TGTTTCCAAAAAAAAAAAAAAAAAAAAAAAAAAAAA [CACACA_negctrl_site358] | 6.2 |
| TAAAAAAAATAGTCAAGTACATAAGAAGGGAAGAAA [XGTACX_site8733] | 6.62 |

| Sequence | gcPBM binding intensity (ln) |
| --- | --- |
| ACTAAAAGATATATAATTTCTTTCTTATTTATTTTT [CACACA_negctrl_site842] | 6.02 |
| TTATTCATATTATCATGTACTTATATATATTGTCAT [XGTACX_site2231] | 6.42 |
| AATAAATAAGCAACATGTACATACAAATATATACAT [XGTACX_site8529] | 6.37 |
| TTTAATTTTTTTAATTCACACATTATTCCATCCTTT [CACACA_site5480] | 6.39 |
| ATCTAATAAAAATACACACACATATGATTTGTGAAT [CACACA_site1867] | 6.61 |
| ATTTTCCATTGTGCTACACACAACGGTTCGCAATAA [CACACA_site2974] | 6.63 |
| ATATTTAAATGTAATACATGCAAATTTGAACATTTT [TGCATGCA_site736] | 7.17 |
| TAATATATTAACATGGGTACATATTATTTCATGTGT [XGTACX_site5985] | 6.42 |
| AAAAAAAAAAAAATCACACATATGTATTTATATATA [CACACA_site5790] | 6.22 |
| AAAAATTTAAGTGGGGGTACATTTTTTTAACACCTT [XGTACX_site1093] | 7.13 |
| AACAAACACGGACACACACACACACTAGAATGATTA [CACACA_site5364] | 7.13 |
| TCTTTTAAAAAAAAAGGAGGAACATAAAAAGTAGAA [XGTACX_negctrl_site272] | 6.75 |
| ATAATTACAAAATAAACACACATATAGATTTATATG [CACACA_site6343] | 6.35 |
| CACATATATATGTGTGCATGTTGTATTATATATTTA [TGCATGCA_site632] | 8.72 |
| TACATAATACATATAACACACACAATTATACATAAA [CACACA_site9060] | 6.78 |
| ATATAATTAAAATGCTCACACACATAAAAAAAAATT [CACACA_site2148] | 8.58 |
| GTACATATATACATTACACACGGTTTGATTTAAAAA [CACACA_site3379] | 6.65 |
| ATTTTATTTTTTAAAGGTACAGTTACAGCTTATATA [XGTACX_site7513] | 6.29 |

From the supplement of paper PMC11417369
